Among all 150,000 compounds or so, about 540 (0.36%) showed an effect of 50% or more. Some of the results follow.

In this test the test system is Plasmodium falciparum. As to the kind of experiment: Primary screen in NF54 nanoGlo assay, in single point, at 2uM, 72h; a lower Z score goes with more inhibition. In kind it is functional, Erythrocyte. Conditions: timepoint 72 hour.
A word on the % Inhibition: it is the change of the read-out against control, counted positive when it falls. `COC[C@H](C)n1ccc(NC(=O)NC(C)(C)c2nc3ccccc3s2)n1`: the “% Inhibition” value came out at 5% and the Z score is listed as -0.83.
On the same counts, the results for `CCCc1[nH]ncc1C(=O)N(C)CC(C)(C)C` are -4% and 0.44.
Taken in the same sequence, the figures for `O=C(N[C@H]1CCOC12CCCC2)c1ccc(F)c2ccncc12` were 1% and -0.12.
For the compound `C=C(C)C[C@H](C)C(=O)NCc1cncc(OC)c1`, the “% Inhibition” value came out at 16% and the Z score is -2.06.
`COc1ccc(CN(C)S(=O)(=O)c2ccc3c(c2)CCO3)cc1F`: the “% Inhibition” value came out at 8% and the Z score was -1.45.
On the same counts, the results for `N#Cc1c2c(n(C[C@H]3CCCO3)c1NC(=O)CN1CCOCC1)CCCC2` are -4% and 0.6.
For the compound `COC(=O)N[C@H](C(=O)Nc1cc(C(N)=O)n(C)c1)C(C)C`, the “% Inhibition” value is on record as -2% and the Z score is on record as 0.31.
Taken in the same sequence, the figures for `Nc1cncc(-n2ccnc2-c2ccccn2)c1` were -9% and 1.79.
Consider `Cc1cccnc1-c1noc([C@H]2OCC[C@H]2C(C)C)n1`, for which the “% Inhibition” value is -7% and the Z score was 1.35.
Consider `COc1ccc(-c2nn(-c3ccccc3F)cc2CNCCc2cn[nH]c2)cc1`, for which the “% Inhibition” value is reported as -20% and the Z score is given as 1.76.
With `O=C(O)c1ccccc1CN1CCC(c2ccon2)CC1`, the “% Inhibition” value is reported as -15% and the Z score stood at 2.94.
With `C[C@@H](c1ccon1)N(C)C(=O)c1cnc(-c2cccnc2)nc1O`, the “% Inhibition” value was determined as 2% and the Z score was -0.36.
Regarding `C[C@@H](C(=O)NCC1CCN(Cc2ccccc2F)CC1)n1c2ccccc2c2cnn(C)c(=O)c21`, the “% Inhibition” value is listed as -12% and the Z score turned out to be 1.18.
Taken in the same sequence, the figures for `CCOc1cccnc1-c1nc(C(=O)NCc2ccc(F)cc2)no1` were -16% and 2.44.
On the same counts, the results for `CCNC(=O)N1Cc2nc[nH]c2C[C@H]1C(=O)NCc1ccccc1` are 31% and -3.47.
As to `CCCCCN(C(=O)Nc1cccc(C#N)c1)[C@@H](C)CCC`, the “% Inhibition” value was -14% and the Z score is 1.43.
Taken in the same sequence, the figures for `CCC1(CC)Oc2ccc(N[C@@H](C)CCn3cncn3)cc2O1` were -9% and 0.8.
Take `CCN(C(=O)c1ccn(C(C)C)n1)c1cccnc1C`: the “% Inhibition” value was -6% and the Z score was 0.66.
Taken in the same sequence, the figures for `O=C(Nc1nc(CN2CCCCCC2)cs1)c1cc2ccccc2o1` were -11% and 1.
As to `NC(=O)Cn1ccnc1-c1ccccc1-c1ccccc1`, the “% Inhibition” value is given as -5% and the Z score is recorded as 0.63.
Turning to `Cc1ccc(-n2nc(C(=O)N(C)Cc3nncn3C)c3c2CCC3)c(C)c1`, the “% Inhibition” value is on record as -2% and the Z score was determined as 0.35.
Consider `O=C(NCC(=O)N1CCN(c2ccccc2)CC1)c1cccs1`, for which the “% Inhibition” value is -4% and the Z score came out at 0.84.
Taken in the same sequence, the figures for `COC(C)(C)CCCC(C)CCNCC1COCCO1` (stereo unspecified) were 0% and -0.01.
Taken in the same sequence, the figures for `COc1ccc(CNC(=O)c2sc3ncnc(N4CCCCCC4)c3c2C)cc1` were 15% and -1.4.
On the same counts, the results for `COCCCN1CC[C@H](CNC(=O)c2cccc(-c3ccc(F)cn3)c2)C1` are -10% and 1.8.
In the case of `C[C@@H](c1nnnn1C1CC1)N1CCC(C)(CN2CCN(C)CC2)CC1`, the “% Inhibition” value is -5% and the Z score was determined as 0.67.
Consider `CCCC[C@@H](C(=O)Nc1cc(C)on1)N1CC(n2nc(C)cc2C)C1`, for which the “% Inhibition” value is reported as -3% and the Z score is 0.56.
On the same counts, the results for `O=C(c1ccccn1)N1CCN(Cc2cccc(F)c2)[C@@H]2CS(=O)(=O)C[C@@H]21` are 2% and -0.36.
`CCOC1CC(Nc2ncnc3c(C)cccc23)C1OC` (stereo unspecified): the “% Inhibition” value is reported as -12% and the Z score is 1.93.
Taken in the same sequence, the figures for `CC1(C)CC(NC(=O)c2cccc(-c3ccc(F)cn3)c2)CC(C)(C)N1` were -4% and 0.54.
For `Cc1ccccc1[C@H]1C[C@@H]1C(=O)Nc1cccc(CC(=O)O)c1`, the “% Inhibition” value is on record as -16% and the Z score is on record as 2.98.
On the same counts, the results for `CCc1nc(C(C)C)nc(N2CCN(C(=O)c3cccs3)CC2)c1Cc1ccccc1F` are -6% and 0.59.
Taken in the same sequence, the figures for `CCCc1cc(N(C)CCc2cn[nH]c2)nc(C)n1` were 7% and -0.9.
For the compound `Cc1nc(-c2ccc(C)c(S(=O)(=O)NC3CCCCCC3)c2)no1`, the “% Inhibition” value was determined as 0% and the Z score is recorded as -0.06.
Take `COc1ccc(S(=O)(=O)N[C@H]2CCC[C@@H](CO)C2)cc1Cl`: the “% Inhibition” value is listed as -19% and the Z score is recorded as 1.95.
As to `Cc1noc(-c2cn(C(C)C)nc2C)n1`, the “% Inhibition” value is reported as -16% and the Z score was found to be 2.14.
Taken in the same sequence, the figures for `O=C(NCCc1ccc2c(c1)OCO2)c1cnn(Cc2ccccc2)c1` were 6% and -1.
On to `O=C(Cn1nc(-c2ccco2)c2sc(N3CCOCC3)nc2c1=O)Nc1ccc(F)cc1F`, for which the “% Inhibition” value is -1% and the Z score stood at 0.14.
On the same counts, the results for `Cn1cc(C(=O)N2CCC(c3ccccc3)CC2)ccc1=O` are -7% and 0.85.
Turning to `c1ccc2[nH]c(CCn3ccnc3-c3ccncc3)nc2c1`, the “% Inhibition” value was -11% and the Z score came out at 1.54.
Taken in the same sequence, the figures for `O=C1C[C@H]2CC[C@@H](CN1)N2S(=O)(=O)c1ccccc1` were 0% and -0.03.
For the compound `CN(C)C[C@@H](O)CNC(=O)c1sccc1Cl`, the “% Inhibition” value is -19% and the Z score came out at 1.65.
Turning to `O=S(=O)(N[C@H]1CCc2nnc(-c3ccc(F)cc3)n2C1)c1cccnc1`, the “% Inhibition” value is recorded as 32% and the Z score was -4.61.

Source of the values: ChEMBL document CHEMBL4888484, “Replenishing the malaria drug discovery pipeline: Screening and hit evaluation of the MMV Hit Generation Library 1 (HGL1) against asexual blood stage Plasmodium falciparum ,using a nano luciferase reporter read-out” (2022).
